The source of these data is the supplement of paper PMC4604168 (melanoma cell lines).

The other results are listed elsewhere or left out. Many values rest on one well or one pass, so single values are uncertain.
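Note: cell number obtained by counting DAPI-stained nuclei in high-throughput microscope images with image analysis software, screen run in 1,536-well plates.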

The experiment concerns IST-MEL1. Kind of experiment: cell count relative to DMSO control; melanoma cells; higher = more viable cells. Conditions: library dose: low library concentration; 72 h.
Regarding `COc1cc([C@@H]2c3cc4c(cc3[C@@H](O[C@@H]3O[C@@H]5CO[C@@H](C)O[C@H]5[C@H](O)[C@H]3O)[C@H]3COC(=O)[C@H]23)OCO4)cc(OC)c1O` [etoposide] + O=c1[nH]nc(Sc2ncc([N+](=O)[O-])s2)n1-c1ccc2c(c1)OCCO2 [BI78D3] (first compound 0.02 µM, partner dose 0.2 µM), the cell count is 103%. As for `Cn1cnc2c(F)c(Nc3ccc(Br)cc3Cl)c(C(=O)NOCCO)cc21` [selumetinib] + Nc1nc(F)nc2c1ncn2[C@@H]1O[C@H](CO)[C@@H](O)[C@@H]1O [fludarabine] (first compound 0.015 µM, partner dose 0.2 µM), the cell count stood at 98.1%. For `Cn1cnc2c(F)c(Nc3ccc(Br)cc3Cl)c(C(=O)NOCCO)cc21` [selumetinib] + Clc1ccc(Nc2nnc(Cc3ccncc3)c3ccccc23)cc1 [vatalanib] (first compound 0.015 µM, partner dose 2 µM), the cell count was 90.4%. The same measure for `CCN(CC)CCNC(=O)c1c(C)[nH]c(/C=C2\C(=O)Nc3ccc(F)cc32)c1C` [sunitinib] + O=C(O)c1ccc2c(c1)nc(Nc1cccc(Cl)c1)c1ccncc12 [CX4945] (first compound 0.4 µM, partner dose 0.4 µM): 108%.

In turn, `C[C@]1(O)C[C@@H](c2nc(-c3ccc4ccc(-c5ccccc5)nc4c3)c3c(N)nccn32)C1` + NC1(c2ccc(-c3nc4ccn5c(=O)[nH]nc5c4cc3-c3ccccc3)cc2)CCC1 [MK2206] (first compound 0.4 µM, partner dose 0.4 µM) showed a cell count of 92.1%. `C[C@]1(O)C[C@@H](c2nc(-c3ccc4ccc(-c5ccccc5)nc4c3)c3c(N)nccn32)C1` + CCCS(=O)(=O)Nc1ccc(F)c(C(=O)c2c[nH]c3ncc(Cl)cc23)c1F [PLX4720] (first compound 0.4 µM, partner dose 0.08 µM) gave a cell count of 91.9%. To `C[C@]1(O)C[C@@H](c2nc(-c3ccc4ccc(-c5ccccc5)nc4c3)c3c(N)nccn32)C1` + C[C@]1(c2nc3c(C(N)=O)cccc3[nH]2)CCCN1 [Veliparib] (first compound 0.4 µM, partner dose 1.4 µM) belongs 98%; to `COc1cc([C@@H]2c3cc4c(cc3[C@@H](O[C@@H]3O[C@@H]5CO[C@@H](C)O[C@H]5[C@H](O)[C@H]3O)[C@H]3COC(=O)[C@H]23)OCO4)cc(OC)c1O` [etoposide] + CN(c1ncccc1CNc1nc(Nc2ccc3c(c2)CC(=O)N3)ncc1C(F)(F)F)S(C)(=O)=O [PF562271] (first compound 0.02 µM, partner dose 0.08 µM), 89.8%; to `C[C@]1(O)C[C@@H](c2nc(-c3ccc4ccc(-c5ccccc5)nc4c3)c3c(N)nccn32)C1` + Clc1ccc(Nc2nnc(Cc3ccncc3)c3ccccc23)cc1 [vatalanib] (first compound 0.4 µM, partner dose 2 µM), 116%. As to `COc1cc([C@@H]2c3cc4c(cc3[C@@H](O[C@@H]3O[C@@H]5CO[C@@H](C)O[C@H]5[C@H](O)[C@H]3O)[C@H]3COC(=O)[C@H]23)OCO4)cc(OC)c1O` [etoposide] + O=C(O)[C@@H]1[O][Sb](=[O])([O][Sb]2(=[O])[O][C@H]([C@H](O)CO)[C@H](O)[C@H](C(=O)O)[O]2)[O][C@H]([C@H](O)CO)[C@@H]1O [stibogluconate] (first compound 0.02 µM, partner dose 2 µM), the cell count came to 97.3%. To `CCN(CC)CCNC(=O)c1c(C)[nH]c(/C=C2\C(=O)Nc3ccc(F)cc32)c1C` [sunitinib] + Cn1c(Nc2ccc(C(F)(F)F)cc2)nc2cc(Oc3ccnc(-c4ncc(C(F)(F)F)[nH]4)c3)ccc21 [CHIR265] (first compound 0.4 µM, partner dose 0.08 µM) belongs 97.7%; to `CCN(CC)CCNC(=O)c1c(C)[nH]c(/C=C2\C(=O)Nc3ccc(F)cc32)c1C` [sunitinib] + CNC(=O)c1cc(Oc2ccc(NC(=O)Nc3ccc(Cl)c(C(F)(F)F)c3)cc2)ccn1 [sorafenib] (first compound 0.4 µM, partner dose 0.4 µM), 110%. To `C[C@]1(O)C[C@@H](c2nc(-c3ccc4ccc(-c5ccccc5)nc4c3)c3c(N)nccn32)C1` + C=C(c1ccc(C(=O)O)cc1)c1cc2c(cc1C)C(C)(C)CCC2(C)C [Bexarotene] (first compound 0.4 µM, partner dose 2 µM) belongs 87.3%.
